Source: the supplement of paper PMC8728848
Some of the results follow.

How the values were obtained:
Assay in all cases: glycan array binding signal (z-score within array); higher = stronger binding
Settings in all cases: glycan notation: IUPAC condensed, linker removed
[1] = molecular target: Gal3S4S(b1-4)GlcNAc
Procedure, shortened: (§1)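 Columns mapping to the same glycan were averaged after glycan names were converted to IUPAC-condensed notation. The data come from 3228 arrays in the Consortium for Functional Glycomics database, limited to those with an available protein sequence. Binding is reported as a within-array Z-score averaged across arrays of one protein sequence and across linkers.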

[2] = molecular target: Gal3S6S(b1-4)GlcNAc
Procedure, shortened: as §1

[3] = molecular target: Gal3S6S(b1-4)GlcNAc6S
Procedure, shortened: as §1

[4] = molecular target: Gal4S(b1-4)GlcNAc
Procedure, shortened: as §1

[5] = molecular target: Gal4S6S(b1-4)GlcNAc
Procedure, shortened: as §1

[6] = molecular target: Gal6P(b1-4)GlcNAc
Procedure, shortened: as §1

[7] = molecular target: Gal6S(b1-3)GlcNAc
Procedure, shortened: as §1

[8] = molecular target: Gal6S(b1-3)GlcNAc6S
Procedure, shortened: as §1

[9] = molecular target: Gal6S(b1-4)Glc
Procedure, shortened: as §1

[10] = molecular target: Gal6S(b1-4)Glc6S
Procedure, shortened: as §1

[11] = molecular target: Gal6S(b1-4)GlcNAc
Procedure, shortened: as §1

[12] = molecular target: Gal6S(b1-4)GlcNAc6S
Procedure, shortened: as §1

[13] = molecular target: GalNAc(a1-3)Gal
Procedure, shortened: as §1

[14] = molecular target: GalNAc(a1-3)GalNAc
Procedure, shortened: as §1

[15] = molecular target: GalNAc(a1-3)GalNAc(b1-3)Gal(a1-4)Gal(b1-4)Glc
Procedure, shortened: as §1

[16] = molecular target: GalNAc(a1-3)GalNAc(b1-3)Gal(a1-4)Gal(b1-4)GlcNAc
Procedure, shortened: as §1

[17] = molecular target: GalNAc(b1-3)Gal
Procedure, shortened: as §1

[18] = molecular target: GalNAc(b1-3)Gal(a1-4)Gal(b1-4)GlcNAc
Procedure, shortened: as §1

[19] = molecular target: GalNAc(b1-3)Gal(a1-4)Gal(b1-4)GlcNAc(b1-3)Gal(b1-4)Glc
Procedure, shortened: as §1

[20] = molecular target: GalNAc(b1-3)Gal(a1-6)Gal(b1-4)Glc
Procedure, shortened: as §1

[21] = molecular target: GalNAc(b1-3)GalNAc
Procedure, shortened: as §1

[22] = molecular target: GalNAc(b1-4)Gal(b1-4)Glc
Procedure, shortened: as §1

[23] = molecular target: GalNAc(b1-4)GlcNAc
Procedure, shortened: as §1

[24] = molecular target: GalNAc(b1-4)GlcNAc(b1-2)Man(a1-3)[GalNAc(b1-4)GlcNAc(b1-2)Man(a1-6)]Man(b1-4)GlcNAc(b1-4)GlcNAc
Procedure, shortened: as §1

[25] = molecular target: GalNAc(b1-4)GlcNAc6S
Procedure, shortened: as §1

[26] = molecular target: GalNAc(b1-6)GalNAc
Procedure, shortened: as §1

[27] = molecular target: GalNAc3S(b1-4)GlcNAc
Procedure, shortened: as §1

[28] = molecular target: GalNAc3S(b1-4)GlcNAc3S
Procedure, shortened: as §1

[29] = molecular target: GalNAc4S6S(b1-4)GlcNAc
Procedure, shortened: as §1

[30] = molecular target: GalNAc6S(b1-4)GlcNAc
Procedure, shortened: as §1

[31] = molecular target: Glc(a1-4)Glc
Procedure, shortened: as §1

[32] = molecular target: Glc(a1-4)Glc(a1-4)Glc(a1-4)Glc
Procedure, shortened: as §1

[33] = molecular target: Glc(a1-6)Glc(a1-6)Glc
Procedure, shortened: as §1

[34] = molecular target: Glc(a1-6)Glc(a1-6)Glc(a1-6)Glc
Procedure, shortened: as §1

[35] = molecular target: Glc(b1-4)Glc
Procedure, shortened: as §1

[36] = molecular target: Glc(b1-6)Glc
Procedure, shortened: as §1

[37] = molecular target: GlcA(b1-3)Gal
Procedure, shortened: as §1

[38] = molecular target: GlcA(b1-3)GlcNAc
Procedure, shortened: as §1

[39] = molecular target: GlcA(b1-6)Gal
Procedure, shortened: as §1

[40] = molecular target: GlcNAc(a1-3)Gal(b1-4)GlcNAc
Procedure, shortened: as §1

[41] = molecular target: GlcNAc(a1-4)Gal(b1-3)GlcNAc
Procedure, shortened: as §1

[42] = molecular target: GlcNAc(a1-4)Gal(b1-4)GalNAc
Procedure, shortened: as §1

[43] = molecular target: GlcNAc(a1-4)Gal(b1-4)GlcNAc
Procedure, shortened: as §1

[44] = molecular target: GlcNAc(a1-4)Gal(b1-4)GlcNAc(b1-3)Gal(b1-4)Glc
Procedure, shortened: as §1

[45] = molecular target: GlcNAc(a1-4)Gal(b1-4)GlcNAc(b1-3)Gal(b1-4)GlcNAc
Procedure, shortened: as §1

Measured: glycan array binding signal (z-score)

B1: SalT (Orysata sativa) (protein)
chain: MTLVKIGLWGGNGGSAQDISVPPKKLLGVTIYSSDAIRSIAFNYIGVDGQEYAIGPWGGGEGTSTEIKLGSSEHIKEISGTHGPVYDLADIVTYLKIVTSANNTYEAGVPNGKEFSIPLQDSGHVVGFFGRSGTLIDAIGIYVHPILEQKLISEEDLNSAVDHHHHHH
-0.308: [3] | [5] | [7] | [9] | [15] | [26] | [28] | [30] | [31] | [33] | [39] | [40]
-0.303: [11]
-0.302: [42]
-0.141: [24]
-0.301: [43]
-0.306: [10] | [18] | [27] | [38]
-0.304: [44]
-0.3: [13]
-0.309: [2] | [14] | [20] | [21] | [32] | [34] | [35] | [37]
-0.307: [12] | [16] | [19] | [25] | [29] | [41]
-0.305: [17] | [22] | [23]
-0.297: [45]
-0.312: [4]
-0.31: [1] | [6] | [8] | [36]
